Measured values published in PubChem BioAssay AID1346428 (National Center for Advancing Translational Sciences (NCATS), 2018).
Hit rate of the full screen: of about 48,000 compounds, about 1,200 (2.5%) were called active. This list was built around the results that the source calls inconclusive (neither active nor inactive); the mix of calls is not that of the screen.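 The calls were made as follows: active = activation of at least 60% and not above a set upper limit (about 1 call in 100 departs from these limits); inconclusive = activation of 40% to 60%, or above that upper limit; inactive = activation under 40%.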 A structure can be active in one record and inactive in another.

Biological target: Probable G-protein coupled receptor 32 (Homo sapiens) (UniProt O75388)
Chain of UniProt O75388 (O75388 whole entry, looked up): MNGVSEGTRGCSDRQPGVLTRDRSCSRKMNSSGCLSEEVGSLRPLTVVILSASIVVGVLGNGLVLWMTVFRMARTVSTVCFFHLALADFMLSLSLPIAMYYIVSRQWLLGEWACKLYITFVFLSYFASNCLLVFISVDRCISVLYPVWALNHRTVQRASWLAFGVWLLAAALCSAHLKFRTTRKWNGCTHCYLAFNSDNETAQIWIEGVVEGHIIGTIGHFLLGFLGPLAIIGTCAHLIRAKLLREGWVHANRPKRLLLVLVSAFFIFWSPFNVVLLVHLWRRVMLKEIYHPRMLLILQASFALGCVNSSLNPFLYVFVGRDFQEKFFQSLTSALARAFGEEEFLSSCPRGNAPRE
Assay: qHTS for Agonists of Human Resolvin D1 Receptor DRV1; also: 0% is about no effect
Conditions: CHO-K1 GPR32 beta-arrestin PathHunter luminescence, 90 min; at 76.9 µM; hits give high values; zero percent set by DMSO-only wells
Outline: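 Cells are plated overnight, treated with compounds in DMSO for 90 minutes at 37 °C, and developed with PathHunter detection reagent for 1 hour before luminescence is read; signal reflects beta-arrestin binding to GPR32 in engineered CHO-K1 cells.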

| Structure (SMILES) | activation |
| --- | --- |
| Cc1ccc(NC(=O)/C=C/c2ccccc2Cl)cc1Cl | inconclusive: 146% |
| Cc1ccc(Nc2ncnc3sc4c(c23)CCC(C)C4)cc1C (stereo unspecified) | inconclusive: 59.4% |
| COc1ccccc1N1CCN(C(=O)C2CCCN(S(=O)(=O)c3ccc4c(c3)CCCN4C(C)=O)C2)CC1 (stereo unspecified) | inconclusive: 51.9% |
| Cc1nc(-c2ccc(F)cc2)sc1CCNC(=O)Cc1ccc(F)cc1 | inconclusive: 52.9% |
| Cc1ccc(Cn2c(C(=O)O)c(CNCc3ccc(C)o3)c3ccc(C)cc32)cc1 | inconclusive: 137% |
| Cc1cc(C)c(S(=O)(=O)Nc2ccc3oc4c(c3c2)CCCC4)cc1C | inconclusive: 57.1% |
| COc1ccc(C2C=C(c3ccccc3)Nc3nc(NS(=O)(=O)c4ccccc4)nn32)cc1 (stereo unspecified) | inconclusive: 184% |
| CCCCN1CC(c2nc3ccccc3n2CCCCOc2ccccc2C)CC1=O (stereo unspecified) | inconclusive: 124% |
| Cc1cc(C)cc(Nc2cc(C)nc3nncn23)c1 | inactive: 3.24% |
| Cc1ccc(O)c(-n2nc3ccccc3n2)c1 | inconclusive: 57.6% |
| Cc1ccc(OCC(=O)Nc2ccc(S(=O)(=O)Nc3ncccn3)cc2)c(C(C)(C)C)c1 | inconclusive: 246% |
| Cc1ccc(C(Nc2ccccn2)c2ccc3cccnc3c2O)cc1 (stereo unspecified) | inconclusive: 134% |
| CC1CCN(c2ccc(NC(=O)c3cccc(Cl)c3)cc2C(=O)O)CC1 | inactive: 1.75% |
| COc1ccc(Nc2c(-c3ccc(Cl)cc3)nc3cnccn23)cc1OC | active: 97.5% |
| N#C/C(=C\c1ccc(-c2ccccc2C(=O)O)o1)c1nc2ccccc2[nH]1 | inactive: -1.77% |
| CCOc1ccc(NC(=O)c2sc3nc4c(cc3c2N)CCCCCC4)cc1 | inactive: 8.43% |
| O=C1Cc2c([nH]c3ccc(Br)cc23)-c2ccccc2N1 | inconclusive: 51.9% |
| CC1(C(=O)Nc2cccc(C(F)(F)F)c2)Cc2ccccc2C(=O)O1 (stereo unspecified) | inconclusive: 128% |
| NC(=O)CSc1nc2ccc(NC(=O)COc3ccccc3)cc2s1 | active: 69.7% |
| CCOc1c(CC2C(=O)Nc3ccc(Br)cc32)cccc1OC (stereo unspecified) | inconclusive: 51.5% |
| CC(C)(Oc1ccc(Cl)cc1)C(=O)Nc1cccc(-c2cn3cccnc3n2)c1 | inconclusive: 165% |
| CCC1CCCCN1C(=O)Cn1c(=O)cc(C(F)(F)F)c2c(C)nn(C)c21 (stereo unspecified) | inconclusive: 171% |

| Structure (SMILES) | activation |
| --- | --- |
| CCC(=O)N1c2ccc(S(=O)(=O)CCC(=O)Nc3ccc(Br)c(C)c3)cc2CC1C (stereo unspecified) | inconclusive: 122% |
| COc1ccc(/C=C(\C#N)c2nc3ccccc3n2C)c(OC)c1 | inactive: -1.55% |
| Cc1cc(C)cc(NC(=O)Cn2c(C(F)(F)F)nc3ccccc32)c1 | inconclusive: 58.8% |
| Cc1ccc(Cl)cc1N1CCN(C(=O)C2CCN(Cc3nc(-c4ccc(Cl)cc4)oc3C)CC2)CC1 | inconclusive: 56.5% |
| COc1ccc(N2CCN(C(=O)c3oc4ccccc4c3NC(=O)c3ccccc3OC)CC2)cc1 | inactive: -5.19% |
| COc1ccc(NC(=O)C2CCCN2S(=O)(=O)c2ccc3nc(-c4ccccc4)[nH]c3c2)cc1 (stereo unspecified) | inconclusive: 56.2% |
| COC(=O)c1ccc(NC(=O)C2CCN(C(=O)c3ccc(F)cc3)CC2)cc1 | active: 60.8% |
| CC(C)C(=O)Nc1ccc2nc(SCCOc3ccccc3)sc2c1 | inactive: 17.7% |
| COc1ccc2c(C)c(CCC(=O)NCCc3ccc(Cl)cc3)c(=O)oc2c1 | active: 108% |
| Cc1ccccc1CS(=O)(=O)Cc1ccc(C(=O)NCc2ccc(F)cc2)o1 | inconclusive: 149% |
| COc1ccc(NS(=O)(=O)c2ccc3[nH]c4c(c3c2)CCCCCC4)cc1 | active: 74.5% |
| CCOc1ccc(NC(=O)c2ccc(F)c(S(=O)(=O)NCc3ccc4c(c3)OCO4)c2)cc1 | inactive: 40.3% |
| CSc1nn(Cc2ccc(Br)cc2)c(N(C(C)=O)C(C)=O)c1S(=O)(=O)c1ccccc1 | inconclusive: 50.6% |
| CCCCSCCCNC(=O)C1CCC(CNS(=O)(=O)c2ccccc2)CC1 (stereo unspecified) | inactive: -8.14% |
| CN1CC(=O)N(CC(=O)Nc2ccc(Cl)c(C(F)(F)F)c2)c2ccccc2C1=O | inactive: -9.71% |
| Cc1c(-c2cccc(NC(=O)C(C)(C)C)c2)nc2ncccn12 | inconclusive: 50.1% |
| CCCc1cc(=O)n2[nH]c(-c3ccc(C)cc3)nc2n1 | inactive: 6.54% |
| CCC(=O)OCCCNc1nc(-c2ccc(Cl)cc2)nc2ccccc12 | inconclusive: 143% |
| CCCCCCn1c(/C=C/c2ccccc2)nc2ccccc21 | inactive: -6.42% |
| c1ccc(N2CCN(c3ncnc4c3nc3n4CCCCC3)CC2)cc1 | inconclusive: 169% |
| Cc1cccc(N2CCN(C(=O)c3cccc(-n4c(C)nc5cccnc54)c3)CC2C)c1 (stereo unspecified) | inconclusive: 52.8% |
| CCOC(=O)C1=C(CS(=O)(=O)c2ccc(F)c(C)c2)NC(=O)NC1c1ccc(F)c(F)c1 (stereo unspecified) | inconclusive: 185% |

| Structure (SMILES) | activation |
| --- | --- |
| COc1ccc(CCC(=O)NCCc2csc(-c3cccc(F)c3)n2)cc1 | inconclusive: 152% |
| COc1cc(-c2nnc(SCC(=O)N(C)C3CCCCC3)o2)cc(OC)c1OC | inconclusive: 172% |
| COc1cc(C2Nc3ccccc3-c3nnc(SCc4ccc(Cl)cc4)nc3O2)ccc1OCC(=O)O (stereo unspecified) | inconclusive: 217% |
| O=C(CCCCn1c(=O)c2ccccc2n(Cc2ccccc2F)c1=O)NCc1ccc2c(c1)OCO2 | inactive: -8.83% |
| Cc1ccc(CNC(=O)C2CCCN(c3nc4c(C)cc(C)cc4s3)C2)cc1 (stereo unspecified) | inactive: 6.72% |
| COc1cccc(NS(=O)(=O)c2ccc3[nH]cc(C(=O)NCCc4ccc(C)cc4)c(=O)c3c2)c1 | inconclusive: 50.2% |
| CCc1ccc(CNC(=O)c2ccc(CS(=O)(=O)Cc3ccccc3C)o2)cc1 | inconclusive: 56.9% |
| CCC1Oc2ccccc2N(CC(=O)NCc2ccc(C)cc2)C1=O (stereo unspecified) | inactive: -16% |
| COc1ccc2c(c1)Cc1sc(NC(=O)c3cccc(Cl)c3)nc1-2 | inconclusive: 57.3% |
| Cc1nc2c(-c3ccccc3)c(C)nn2c(C)c1CCC(=O)NCc1cccc(Cl)c1 | active: 61.7% |
| Cc1cc2nc3ccc(=[N+](C)C)cc-3sc2cc1N | inactive: -49.8% |
| CCCOc1ccccc1C(=O)N1CCC(c2nc3ccccc3s2)CC1 | active: 104% |
| Cc1ccc2ccc(C(Nc3ccccn3)c3ccccc3)c(O)c2n1 (stereo unspecified) | inconclusive: 138% |
| CCN(CC)C(=S)SSC(=S)N(CC)CC | inconclusive: 53.7% |
| Cc1ccc(Nc2c(-c3ccc(C)cc3)nc3cnccn23)cc1 | inconclusive: 135% |
| CC(=O)c1ccc(N2CCN(C(=O)C3CCN(S(=O)(=O)c4cccc5nonc45)CC3)CC2)cc1 | inconclusive: 131% |
| CC1CCCCN1CCCOC(=O)c1ccc(OC2CCCCC2)cc1 (stereo unspecified) | inconclusive: 166% |
| Cc1cc(C)cc(NC(=O)C2CCN(S(=O)(=O)c3cccc4nonc34)CC2)c1 | inconclusive: 54.1% |
| CCOC(=O)C1CCCN(S(=O)(=O)c2ccc3[nH]c(=O)ccc3c2)C1 (stereo unspecified) | inconclusive: 57.1% |
| CCc1cc(C(=O)Nc2c(C)nn(Cc3ccc(C)cc3)c2C)no1 | inconclusive: 55.2% |
| Cc1nc2nncn2c(N2CCN(c3ccccc3)CC2)c1C | inactive: -5.94% |
| CCN(CC)C(=O)C1CCN(S(=O)(=O)c2ccc3c(c2)CCCN3C(C)=O)CC1 | inactive: 12.6% |

| Structure (SMILES) | activation |
| --- | --- |
| O=c1nc2sc3ccccc3n2c(=O)n1-c1ccc(Cl)c(Cl)c1 | inconclusive: 55% |
| O=C(CC1Sc2ccc(C(F)(F)F)cc2NC1=O)Nc1ccc(Cl)c(C(F)(F)F)c1 (stereo unspecified) | inconclusive: 195% |
| COc1ccc(NC(=O)C(NS(=O)(=O)c2ccc3c(c2)CCCC(=O)N3)C(C)C)c(OC)c1 (stereo unspecified) | inconclusive: 246% |
| Cc1ccc(-n2ncc3c(N4CCCCCC4)ncnc32)cc1 | inconclusive: 126% |
| c1ccc(-n2ncc3c(NC4CCCC4)ncnc32)cc1 | inactive: 7.69% |
| CC(=O)c1ccc(N2CCN(c3ccc(NC(=O)c4cccs4)cc3C(=O)O)CC2)cc1 | inconclusive: 52.6% |
| Clc1ccc(-n2ncc3c(NC4CCCC4)ncnc32)cc1 | inconclusive: 155% |
| CCN(Cc1ccccc1)C(=O)c1cc(-c2ccccc2)n[nH]1 | inconclusive: 128% |
| Cc1oc2ccc(O)c(CN3CCOCC3)c2c1C(=O)Nc1cccc(C(F)(F)F)c1 | inconclusive: 52% |
| O=C(NCC(c1cccnc1)N1CCN(c2ccccc2F)CC1)C(=O)Nc1ccc(F)cc1F (stereo unspecified) | inactive: 0.652% |
| COc1cc(/C=C(\C#N)c2nc3ccccc3[nH]2)ccc1OCc1ccccc1F | inactive: 8.85% |
| Cc1ccccc1CNc1nc(N(C)C)nc2c1cnn2C | inconclusive: 193% |
| Cc1cccc(N2CCN(S(=O)(=O)c3ccc4c(c3)C(C(C)C)C(=O)N4)CC2)c1C (stereo unspecified) | inconclusive: 53.8% |
| COCCn1c(SCC(=O)Nc2ccc(F)c(Cl)c2)nc2c(oc3ccccc32)c1=O | inactive: 9.46% |
| COc1ccc(-n2ccnc(NCCc3ccc(S(N)(=O)=O)cc3)c2=O)cc1 | inconclusive: 50.6% |
| Cc1cc(Br)ccc1NC(=O)C(Cc1ccccc1)NS(=O)(=O)c1ccc(Br)s1 (stereo unspecified) | active: 65.4% |
| CCc1cccc(NC(=O)c2nnn(Cc3ccc(SC)cc3)c2N)c1 | active: 61.7% |
| O=C(Nc1ccc(Br)cc1)C1CCCN(S(=O)(=O)c2ccc(Br)s2)C1 (stereo unspecified) | active: 81.9% |
| Cn1c(=O)c2cc(C(=O)NC3CCCCCC3)sc2c2ccccc21 | inconclusive: 132% |
| COc1ccc(-c2coc3c2c(C)cc2oc(=O)c(CC(=O)O)c(C)c23)cc1 | inactive: 4.51% |
